Consider 153 variants from a collection of fitness landscapes (doi:10.1016/j.celrep.2020.107928).

The full ranking holds about 81,000 sequences; the median of “one-hybrid fitness for binding parS DNA” is about -0.17, and the highest 2% start at about 0.51. The list shows a part of the results. A value given as a limit tells only on which side of the number the result lay.

To fix the notation:
B1: Caulobacter ParB omega fusion; a variant is named by its letters at X, in order, B8GW30 (parent)
chain: MESVVVGEPGMSEGRRGLGRGLSALLGEVDAAPAQAPGEQLGGSREAPIEILQRNPDQPRRTFREEDLEDLSNSIREKGVLQPILVRPSPDTAGEYQIVAGERAWRAAQRAGLKTVPIMVRELDDLAVLEIGIIENVQRADLNVLEEALSYKVLMEKFERTQENIAQTIGKSXSHVANXMRLLXLPDEVQSYLVSGELTAXHARAIAAAADPVALAKQIIEGGLSVRETEALARKAPNLSAGKSKGGRPPRVKDTDTQALESDLSSVLGLDVSIDHRGSTGTLTITYATLEQLDDLCNRLTRGI

The variants in the assay derive from B1. Nature of the assay: one-hybrid fitness for binding parS DNA (scaled: cognate 1, non-cognate 0); higher = stronger binding. The following applies: with parS DNA site. In a few lines: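 Bacterial one-hybrid selection in E. coli USO rpoZ- hisB- pyrF- with a HIS3 reporter carrying the site 19 bp from the promoter, screening Caulobacter ParB libraries with four specificity codons randomised (NNS). Cells grew 48 hours at 37°C on M9-minus-histidine plus 0.1 mM IPTG and 5 mM 3-AT. Plasmids before and after selection were Illumina-sequenced, three replicate libraries pooled, and variants under 10 reads dropped. Fitness is the log change in variant-to-wild-type read ratio, rescaled to cognate 1, non-cognate 0.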
In the case of CLRM, the “one-hybrid fitness for binding parS DNA” value is at most 0.2. For AQVE, the “one-hybrid fitness for binding parS DNA” value was at most 0.2. For NTQY the value was at most 0.2. As for KPIK, the “one-hybrid fitness for binding parS DNA” value was at most 0.2.

Turning to EGWC, the “one-hybrid fitness for binding parS DNA” value is at most 0.2. The same measure for FRMW: 0.248.

FPYL: the “one-hybrid fitness for binding parS DNA” value was at most 0.2. YTLV: the “one-hybrid fitness for binding parS DNA” value was at most 0.2. As to TVSY, the “one-hybrid fitness for binding parS DNA” value is at most 0.2.

As to RQVR, the “one-hybrid fitness for binding parS DNA” value was at most 0.2. The same measure for EMKL: 0.265; for YATF: at most 0.2; for FSRL: at most 0.2. The same measure for LVPM: at most 0.2; for SDNA: at most 0.2; for QNYI: at most 0.2. For PDAQ the value was at most 0.2; for FNGF, at most 0.2.

On to HNKG, for which the “one-hybrid fitness for binding parS DNA” value is at most 0.2. For YISC the value was at most 0.2. For HPKT the value was at most 0.2; for HYVF, at most 0.2; for YWVS, at most 0.2. As to MQYL, the “one-hybrid fitness for binding parS DNA” value is at most 0.2. For TIGA the value was at most 0.2; for RSLY, 0.441; for MSAV, at most 0.2. The same measure for EITA: at most 0.2; for SKTT: at most 0.2; for QIPT: at most 0.2. For SVAS the value was at most 0.2; for TNLF, at most 0.2; for EQYW, 0.216. Regarding YSGT, the “one-hybrid fitness for binding parS DNA” value was at most 0.2. The same measure for TVRS: at most 0.2; for HTPT: at most 0.2; for GMVF: at most 0.2.

Consider TMPT, for which the “one-hybrid fitness for binding parS DNA” value is at most 0.2. Turning to PIYP, the “one-hybrid fitness for binding parS DNA” value is at most 0.2.

In the case of HHPY, the “one-hybrid fitness for binding parS DNA” value is at most 0.2. For EHEC the value was at most 0.2; for SSAL, at most 0.2; for GCSG, at most 0.2.

As for ILNK, the “one-hybrid fitness for binding parS DNA” value is at most 0.2.

On to TNFE, for which the “one-hybrid fitness for binding parS DNA” value is at most 0.2. The same measure for VDWL: at most 0.2; for LWYC: at most 0.2; for ATVN: 0.216. As for ICYR, the “one-hybrid fitness for binding parS DNA” value is at most 0.2. Consider TDSF, for which the “one-hybrid fitness for binding parS DNA” value is at most 0.2. With THAN, the “one-hybrid fitness for binding parS DNA” value was at most 0.2.

For the variant RHKI, the “one-hybrid fitness for binding parS DNA” value was at most 0.2. For the variant AYNV, the “one-hybrid fitness for binding parS DNA” value is at most 0.2. The same measure for EVKM: at most 0.2; for IRTC: at most 0.2; for DMYC: at most 0.2. For FVRR, the “one-hybrid fitness for binding parS DNA” value is at most 0.2. On to AKNS, for which the “one-hybrid fitness for binding parS DNA” value is at most 0.2. With HNSA, the “one-hybrid fitness for binding parS DNA” value was at most 0.2.

With LVMC, the “one-hybrid fitness for binding parS DNA” value is at most 0.2.

Regarding RYMF, the “one-hybrid fitness for binding parS DNA” value came out at 0.216.

For GKTM, the “one-hybrid fitness for binding parS DNA” value is at most 0.2. Consider RGNS, for which the “one-hybrid fitness for binding parS DNA” value was 0.862. The same measure for ESPA: at most 0.2. With CYPM, the “one-hybrid fitness for binding parS DNA” value is at most 0.2. Consider TPCT, for which the “one-hybrid fitness for binding parS DNA” value is at most 0.2. For the variant QHKE, the “one-hybrid fitness for binding parS DNA” value was at most 0.2. For the variant KFGS, the “one-hybrid fitness for binding parS DNA” value is at most 0.2. On to GWNN, for which the “one-hybrid fitness for binding parS DNA” value is at most 0.2. With PDLR, the “one-hybrid fitness for binding parS DNA” value is at most 0.2. The same measure for FLRD: at most 0.2.

Regarding HICR, the “one-hybrid fitness for binding parS DNA” value is at most 0.2. The same measure for PHKT: at most 0.2. For NPYT the value was at most 0.2; for PVDM, at most 0.2; for DNKS, at most 0.2. As for KIPV, the “one-hybrid fitness for binding parS DNA” value was at most 0.2. Turning to KLLC, the “one-hybrid fitness for binding parS DNA” value is at most 0.2. For DKQL the value was at most 0.2; for RKSI, at most 0.2; for YTDK, at most 0.2. The same measure for QHCY: at most 0.2; for DGKP: at most 0.2. As for SIWV, the “one-hybrid fitness for binding parS DNA” value was at most 0.2.

For the variant RRRD, the “one-hybrid fitness for binding parS DNA” value was at most 0.2. VQGT: the “one-hybrid fitness for binding parS DNA” value was at most 0.2.

Regarding RLVG, the “one-hybrid fitness for binding parS DNA” value came to 0.991.

For the variant SLQE, the “one-hybrid fitness for binding parS DNA” value is at most 0.2. For the variant RWVP, the “one-hybrid fitness for binding parS DNA” value is at most 0.2. For RKAT the value was 0.818; for AVRT, at most 0.2; for QASN, at most 0.2. Turning to SPPF, the “one-hybrid fitness for binding parS DNA” value is at most 0.2. Take SLYK: the “one-hybrid fitness for binding parS DNA” value was at most 0.2.

For KPIR, the “one-hybrid fitness for binding parS DNA” value is at most 0.2.

Consider QMIR, for which the “one-hybrid fitness for binding parS DNA” value is at most 0.2. FFAA: the “one-hybrid fitness for binding parS DNA” value is at most 0.2. For LLYT the value was at most 0.2. The same measure for AFGN: at most 0.2; for QTDW: at most 0.2; for RRGL: at most 0.2.

LSLH: the “one-hybrid fitness for binding parS DNA” value was at most 0.2.

RASN: the “one-hybrid fitness for binding parS DNA” value was found to be 0.435. With RQDF, the “one-hybrid fitness for binding parS DNA” value worked out at 0.215.

Turning to MRRS, the “one-hybrid fitness for binding parS DNA” value is at most 0.2. The same measure for PENC: at most 0.2. On to MNPS, for which the “one-hybrid fitness for binding parS DNA” value is at most 0.2.

In the case of TVSE, the “one-hybrid fitness for binding parS DNA” value was at most 0.2. On to GSDN, for which the “one-hybrid fitness for binding parS DNA” value was at most 0.2. The same measure for EAIG: at most 0.2. For the variant LWSS, the “one-hybrid fitness for binding parS DNA” value is at most 0.2. Regarding DKCC, the “one-hybrid fitness for binding parS DNA” value is at most 0.2. Take KKYT: the “one-hybrid fitness for binding parS DNA” value was at most 0.2.

For the variant VASR, the “one-hybrid fitness for binding parS DNA” value was at most 0.2.

Consider GWFR, for which the “one-hybrid fitness for binding parS DNA” value was at most 0.2. Regarding RKPN, the “one-hybrid fitness for binding parS DNA” value is at most 0.2. For HQPC the value was at most 0.2; for SWVT, at most 0.2. The same measure for ATKQ: at most 0.2; for HFDR: at most 0.2; for HRSS: 0.415.

For the variant MYGY, the “one-hybrid fitness for binding parS DNA” value was at most 0.2. With DTNA, the “one-hybrid fitness for binding parS DNA” value was at most 0.2. The same measure for SCSS: at most 0.2; for VSIM: at most 0.2. The same measure for MMVS: at most 0.2; for KAGY: at most 0.2; for AQMS: at most 0.2.

Regarding STWN, the “one-hybrid fitness for binding parS DNA” value is at most 0.2. The same measure for ALLG: at most 0.2; for NPEF: at most 0.2; for CKYR: at most 0.2.

Take PVQS: the “one-hybrid fitness for binding parS DNA” value was at most 0.2. The same measure for IVNT: at most 0.2; for TTWT: at most 0.2. For AGMK the value was at most 0.2; for IYTP, at most 0.2.

In the case of VYES, the “one-hybrid fitness for binding parS DNA” value was at most 0.2. With LFYT, the “one-hybrid fitness for binding parS DNA” value is at most 0.2. The same measure for PHKG: at most 0.2; for RQYW: 0.214.

As for SHES, the “one-hybrid fitness for binding parS DNA” value was at most 0.2. For KLMP the value was 0.256; for QERV, at most 0.2. Take SEVR: the “one-hybrid fitness for binding parS DNA” value is at most 0.2. For YVAR the value was at most 0.2; for HDAP, at most 0.2. For WWHL the value was at most 0.2; for SHMC, at most 0.2. For the variant GKPE, the “one-hybrid fitness for binding parS DNA” value was at most 0.2. The same measure for RENL: at most 0.2.

For TAMI, the “one-hybrid fitness for binding parS DNA” value was at most 0.2. For VWTT the value was at most 0.2.
